Reference: the supplement of paper PMC4604168 (melanoma cell lines)
This is one part of the list. Single values are uncertain, as repeats are few or missing.

What was measured:
Assay in all cases: cell count relative to DMSO control; melanoma cells; higher = more viable cells
Conditions in all cases: library dose: low library concentration; 72 h
MZ2-MEL = system: MZ2-MEL
MeWo = system: MeWo
RPMI7951 = system: RPMI7951
RVH-421 = system: RVH-421
SkMel28 = system: SkMel28
SkMel2 = system: SkMel2
SkMel30 = system: SkMel30
SkMel5 = system: SkMel5
UACC257 = system: UACC257
UACC62 = system: UACC62
WM115 = system: WM115
WM1716 = system: WM1716
WM1745 = system: WM1745
WM3526 = system: WM3526
WM3619 = system: WM3619
WM451Lu = system: WM451Lu
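Further: cell number obtained by counting DAPI-stained nuclei in high-throughput microscope images with image analysis software, screen run in 1,536-well plates.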

| SMILES | cell count (MZ2-MEL) | cell count (MeWo) | cell count (RPMI7951) | cell count (RVH-421) | cell count (SkMel28) | cell count (SkMel2) | cell count (SkMel30) | cell count (SkMel5) | cell count (UACC257) | cell count (UACC62) | cell count (WM115) | cell count (WM1716) | cell count (WM1745) | cell count (WM3526) | cell count (WM3619) | cell count (WM451Lu) |
| --- | --- | --- | --- | --- | --- | --- | --- | --- | --- | --- | --- | --- | --- | --- | --- | --- |
| O=C(/C=C/c1cccnc1)NCCCCC1CCN(C(=O)c2ccccc2)CC1 + COc1ccc2c(c1)CCC1C2CCC2(C)C(NCCCCCCN3C(=O)C=CC3=O)CCC12 [U73122] (first compound 0.01 µM, partner dose 0.4 µM) | 46.8% | 101% | 89.3% | 47% | 87% | 42.1% | 82.6% | 88.2% | 90.3% | 99.2% | 90.6% | 94.6% | 98.6% | 91.5% | 87.3% | 94.4% |
| CC1(C)CCC(c2ccc(Cl)cc2)=C(CN2CCN(c3ccc(C(=O)NS(=O)(=O)c4ccc(N[C@H](CCN5CCOCC5)CSc5ccccc5)c(S(=O)(=O)C(F)(F)F)c4)cc3)CC2)C1 + COC(=O)c1sccc1S(=O)(=O)Nc1ccc(Nc2ccccc2)cc1OC [GSK0660] (first compound 0.4 µM, partner dose 1 µM) | 88.5% | 77.8% | 52.4% | 74.7% | 100% | 79.6% | 76.3% | 62% | 68.8% | 97.4% | 82.4% | 74.2% | 9.69% | 102% | 62% | 82.1% |
| O=C(/C=C/c1cccnc1)NCCCCC1CCN(C(=O)c2ccccc2)CC1 + COc1ccc(-c2ccc3c(N4CCOCC4)nc(N4C[C@@H](C)O[C@@H](C)C4)nc3n2)cc1CO [KU0063794] (first compound 0.01 µM, partner dose 0.02 µM) | 36.7% | 96.8% | 84.1% | 70.5% | 93.4% | 54.3% | 105% | 98.4% | 102% | 74.5% | 89.2% | 94.5% | 114% | 93.7% | 90.5% | 67% |
| Cc1ccc(Nc2nccc(N(C)c3ccc4c(C)n(C)nc4c3)n2)cc1S(N)(=O)=O [Pazopanib] + COc1cc(Nc2ncc(F)c(Nc3ccc4c(n3)NC(=O)C(C)(C)O4)n2)cc(OC)c1OC [Tamatinib] (first compound 0.4 µM, partner dose 0.4 µM) | 82.9% | 89.4% | 71.5% | 91% | 74.5% | 99.5% | 76.2% | 79.1% | 70.6% | 83.8% | 80.8% | 92.7% | 91.6% | 85.3% | 90.1% | 116% |
| CC1(C)CCC(c2ccc(Cl)cc2)=C(CN2CCN(c3ccc(C(=O)NS(=O)(=O)c4ccc(N[C@H](CCN5CCOCC5)CSc5ccccc5)c(S(=O)(=O)C(F)(F)F)c4)cc3)CC2)C1 + COc1cc(N2CCC(N3CCN(C)CC3)CC2)ccc1Nc1ncc(Cl)c(Nc2ccccc2S(=O)(=O)C(C)C)n1 [NVP-TAE684] (first compound 0.4 µM, partner dose 0.08 µM) | 101% | 50% | 55.8% | 61.6% | 89.2% | 81.7% | 54.4% | 45.1% | 35.5% | 104% | 77.8% | 54.4% | 15.2% | 77.2% | 76% | 83.7% |
| CC1(C)CCC(c2ccc(Cl)cc2)=C(CN2CCN(c3ccc(C(=O)NS(=O)(=O)c4ccc(N[C@H](CCN5CCOCC5)CSc5ccccc5)c(S(=O)(=O)C(F)(F)F)c4)cc3)CC2)C1 + NC(=O)Nc1cc(-c2cccc(F)c2)sc1C(=O)N[C@H]1CCCNC1 [AZD7762] (first compound 0.4 µM, partner dose 0.02 µM) | 99.2% | 83.4% | 43% | 81.5% | 92.6% | 95.3% | 70.1% | 63.7% | 113% | 102% | 59.7% | 52.5% | 16.7% | 69.6% | 24.9% | 67.8% |
| O=C(/C=C/c1cccnc1)NCCCCC1CCN(C(=O)c2ccccc2)CC1 + C[C@@H]1CCN(C(=O)CC#N)C[C@@H]1N(C)c1ncnc2[nH]ccc12 [CP690550] (first compound 0.01 µM, partner dose 1 µM) | 43.1% | 94.4% | 95% | 56.6% | 84.7% | 53.4% | 90.9% | 76% | 141% | 97.9% | 88.5% | 86% | 88% | 80.2% | 74.4% | 101% |
| CC1(C)CCC(c2ccc(Cl)cc2)=C(CN2CCN(c3ccc(C(=O)NS(=O)(=O)c4ccc(N[C@H](CCN5CCOCC5)CSc5ccccc5)c(S(=O)(=O)C(F)(F)F)c4)cc3)CC2)C1 + CC1(C)NC(=O)N(c2ccc([N+](=O)[O-])c(C(F)(F)F)c2)C1=O [nilutamide] (first compound 0.4 µM, partner dose 1 µM) | 92.2% | 91.1% | 66.4% | 76.8% | 83.1% | 89% | 70.8% | 64% | 77.8% | 92.7% | 82.3% | 59.8% | 28.1% | 85.2% | 89.1% | 99.5% |
| O=C(/C=C/c1cccnc1)NCCCCC1CCN(C(=O)c2ccccc2)CC1 + O=C(CCCCCCC(=O)Nc1ccccc1)NO [vorinostat] (first compound 0.01 µM, partner dose 0.08 µM) | 74.6% | 89% | 124% | 84.6% | 78% | 76% | 112% | 79% | 79.1% | 82.4% | 76.8% | 98.8% | 91.7% | 97.6% | 86.9% | 78.4% |
| Cc1ccc(Nc2nccc(N(C)c3ccc4c(C)n(C)nc4c3)n2)cc1S(N)(=O)=O [Pazopanib] + NCC(=O)Nc1ccc(-n2nc(C(F)(F)F)cc2-c2ccc3c(ccc4ccccc43)c2)cc1 [OSU03012] (first compound 0.4 µM, partner dose 1 µM) | 83.1% | 59% | 125% | 107% | 96.5% | 67.6% | 47.5% | 88% | 107% | 72.5% | 84.4% | 98.6% | 123% | 48.5% | 94% | 72.5% |
| Cc1ccc(Nc2nccc(N(C)c3ccc4c(C)n(C)nc4c3)n2)cc1S(N)(=O)=O [Pazopanib] + O=C(Nc1cccc(Cl)c1)Nc1ncc(CCNc2ncnc3ccsc23)s1 [SNS314] (first compound 0.4 µM, partner dose 0.0008 µM) | 75.7% | 92.5% | 93.4% | 77.8% | 101% | 99.6% | 86.7% | 95.3% | 100% | 94.2% | 83.6% | 71.4% | 90.8% | 84.1% | 86.5% | 99.2% |
| Cc1ccc(Nc2nccc(N(C)c3ccc4c(C)n(C)nc4c3)n2)cc1S(N)(=O)=O [Pazopanib] + Cc1ccc(NC(=O)c2cccc(N(C)C)c2)cc1NC(=O)c1ccc(O)cc1 [ZM336372] (first compound 0.4 µM, partner dose 2 µM) | 77.6% | 98.8% | 89.8% | 118% | 78.2% | 112% | 91.2% | 81% | 99.7% | 86.2% | 91% | 102% | 79.4% | 101% | 114% | 119% |
| O=C(/C=C/c1cccnc1)NCCCCC1CCN(C(=O)c2ccccc2)CC1 + Oc1cc(-c2nc(-c3ccccc3)[nH]c2-c2ccncc2)ccc1Cl [L779450] (first compound 0.01 µM, partner dose 0.2 µM) | 35.3% | 95.4% | 98% | 71.4% | 70.1% | 52.8% | 99% | 98.4% | 81.1% | 65.2% | 82.8% | 89.8% | 72.1% | 86.9% | 86.5% | 104% |
| Cc1ccc(Nc2nccc(N(C)c3ccc4c(C)n(C)nc4c3)n2)cc1S(N)(=O)=O [Pazopanib] + CC(C)(C)c1cnc(CSc2cnc(NC(=O)C3CCNCC3)s2)o1 [SNS-032] (first compound 0.4 µM, partner dose 0.01 µM) | 80.7% | 92.5% | 91.6% | 88.5% | 99.9% | 112% | 78.7% | 82.7% | 94.3% | 84.4% | 114% | 80.9% | 95.5% | 95.1% | 99.2% | 136% |
| O=C(/C=C/c1cccnc1)NCCCCC1CCN(C(=O)c2ccccc2)CC1 + COc1ccc(COc2ccc(Cc3cnc(N)nc3N)cc2OC)cc1 [GW2580] (first compound 0.01 µM, partner dose 1 µM) | 50.8% | 104% | 91.6% | 55.3% | 85.3% | 44.3% | 98.8% | 80.7% | 79% | 80.6% | 96.7% | 95.3% | 105% | 106% | 84.2% | 94.1% |
| CC1(C)CCC(c2ccc(Cl)cc2)=C(CN2CCN(c3ccc(C(=O)NS(=O)(=O)c4ccc(N[C@H](CCN5CCOCC5)CSc5ccccc5)c(S(=O)(=O)C(F)(F)F)c4)cc3)CC2)C1 + Cc1cc(N2CCOCC2)cc2[nH]c(-c3c(NC[C@@H](O)c4cccc(Cl)c4)cc[nH]c3=O)nc12 [BMS536924] (first compound 0.4 µM, partner dose 0.2 µM) | 92.3% | 74.9% | 64.5% | 77.4% | 90.7% | 77.2% | 65.8% | 80.8% | 85.1% | 101% | 96.4% | 86.1% | 9.47% | 79.3% | 77% | 90.2% |
| O=C(/C=C/c1cccnc1)NCCCCC1CCN(C(=O)c2ccccc2)CC1 + O=C(Nc1cccc(Cl)c1)Nc1ncc(CCNc2ncnc3ccsc23)s1 [SNS314] (first compound 0.01 µM, partner dose 0.0008 µM) | 49.7% | 106% | 109% | 55.3% | 78.6% | 55% | 90.7% | 85.6% | 113% | 84.1% | 73% | 94.4% | 106% | 94.8% | 92% | 121% |
